Substitutions are numbered along the chain they refer to. Names may count otherwise.
T1: extracellular domain of human BCMA (Homo sapiens, UniProt Q02223)
T1 construct: tips loaded with the extracellular domain of human or rhesus monkey BCMA (amino linked) were generated
T1 sequence (Q02223 1-54 limits assumed): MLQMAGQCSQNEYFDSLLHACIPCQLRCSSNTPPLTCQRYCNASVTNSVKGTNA

B1: AB200_Fab + D99E: AB200 Fab with D99E mutation at heavy chain Kabat position 99, non-mutated AB200 light chain (antibody)
VH: QVQLVQSGAEVKKPGSSVKVSCKASGGTFSNYWMHWVRQAPGQGLEWMGATYRGHSDTYYNQKFKGRVTITADKSTSTAYMELSSLRSEDTAVYYCARGAIYEGYDVLDNWGQGTLVTVSS
light: DIQMTQSPSSLSASVGDRVTITCSASQDISNYLNWYQQKPGKAPKLLIYYTSNLHSGVPSRFSGSGSGTDFTLTISSLQPEDFATYYCQQYRKLPWTFGQGTKLEIKRTVAAPSVFIFPPSDEQLKSGTASVVCLLNNFYPREAKVQWKVDNALQSGNSQESVTEQDSKDSTYSLSSTLTLSKADYEKHKVYACEVTHQGLSSPVTKSFNRGEC
B2: AB200_Fab + D99H (antibody)
heavy: QVQLVQSGAEVKKPGSSVKVSCKASGGTFSNYWMHWVRQAPGQGLEWMGATYRGHSDTYYNQKFKGRVTITADKSTSTAYMELSSLRSEDTAVYYCARGAIYHGYDVLDNWGQGTLVTVSSASTKGPSVFPLAPSSKSTSGGTAALGCLVKDYFPEPVTVSWNSGALTSGVHTFPAVLQSSGLYSLSSVVTVPSSSLGTQTYICNVNHKPSNTKVDKKVEPKSC
light: B1 light
B3: AB200_Fab + D99Q: AB200 Fab with D99Q mutation at heavy chain Kabat position 99, non-mutated AB200 light chain (antibody)
VH: B1 VH with E103Q
light: B1 light
B4: AB200_Fab + D99N: AB200 Fab with asparagine at heavy chain Kabat position 99, non-mutated AB200 light chain (antibody)
VH: B1 VH with E103N
light: B1 light
B5: AB200_Fab + D99S: AB200 Fab with D99S mutation at heavy chain Kabat position 99, non-mutated AB200 light chain (antibody)
VH: B1 VH with E103S
light: B1 light
B6: AB200-(2Vk35)_R2-VH-v6 (antibody)
heavy: B2 heavy with S30T, M34I, G54S, N61A, F64Y, G66S, I101V, L108I
light: B1 light with S24R, D28S, N31S, L33I, Y50A, H55Q, K93R, L94I
B7: AB200-(2Vk35)_R2-VH-v62 (antibody)
heavy: B2 heavy with M34I, A50G, G54I, Q62E, G66S, L108I, D109E
light: B1 light with S24R, D28S, N31S, L33I, Y50A, H55Q, K93R, L94I
B8: AB200-(2Vk35)_R2-VH-v63 (antibody)
heavy: B2 heavy with M34I, G54I, D57T, Y59N, G66S, K74E, I101V, L108I
light: B1 light with S24R, D28S, N31S, L33I, Y50A, H55Q, K93R, L94I
B9: AB200-(2Vk35)_R2-VH-v69 (antibody)
heavy: B2 heavy with M34I, G54I, H55Q, Y59N, G66S, I101V, L108I
light: B1 light with S24R, D28S, N31S, L33I, Y50A, H55Q, K93R, L94I
B10: AB200-(2Vk35)_R2-VH-v76 (antibody)
heavy: B2 heavy with M34I, G54I, H55Q, Q62E, G66S, Y105F, L108I
light: B1 light with S24R, D28S, N31S, L33I, Y50A, H55Q, K93R, L94I
B11: AB200-(2Vk44)_R2-VH-v72 (antibody)
heavy: B2 heavy with M34I, G54I, H55Q, N61A, G66S, I101V, L108I
light: B1 light with S24R, D28S, N31S, L33I, Y50A, H55Q, S56I, K93R, T97S
B12: AB200-(2Vk44)_R2-VH-v75 (antibody)
heavy: B2 heavy with M34I, G54I, H55Q, F64Y, G66S, I101V, L108I
light: B1 light with S24R, D28S, N31S, L33I, Y50A, H55Q, S56I, K93R, T97S
B13: AB200-(2Vk44)_R2-VH-v1 (antibody)
heavy: B2 heavy with S30T, M34I, A50G, G54S, F64Y, G66S, L108I, D109E
light: B1 light with S24R, D28S, N31S, L33I, Y50A, H55Q, S56I, K93R, T97S
B14: AB200-(2Vk44)_R2-VH-v14 (antibody)
heavy: B2 heavy with T28S, M34I, G54S, D57T, Q62E, G66S, I101V, L108I
light: B1 light with S24R, D28S, N31S, L33I, Y50A, H55Q, S56I, K93R, T97S
B15: AB200-(2Vk44)_R2-VH-v22 (antibody)
heavy: B2 heavy with M34I, A50G, G54S, H55Q, G66S, I101V, L108I
light: B1 light with S24R, D28S, N31S, L33I, Y50A, H55Q, S56I, K93R, T97S
B16: AB200-(2Vk44)_R2-VH-v24 (antibody)
heavy: B2 heavy with M34I, A50G, G54S, Q62E, G66S, Y102F, L108I
light: B1 light with S24R, D28S, N31S, L33I, Y50A, H55Q, S56I, K93R, T97S
B17: AB200-(2Vk44)_R2-VH-v28 (antibody)
heavy: B2 heavy with M34I, G54S, D57T, F64Y, G66S, Y105F, L108I
light: B1 light with S24R, D28S, N31S, L33I, Y50A, H55Q, S56I, K93R, T97S
B18: AB200-(2Vk44)_R2-VH-v35 (antibody)
heavy: B2 heavy with M34I, G54S, N61A, F64Y, G66S, L108I, D109E
light: B1 light with S24R, D28S, N31S, L33I, Y50A, H55Q, S56I, K93R, T97S
B19: AB200-(2Vk44)_R2-VH-v41 (antibody)
heavy: B2 heavy with S30T, M34I, A50G, G54I, Q62E, G66S, Y105F, L108I
light: B1 light with S24R, D28S, N31S, L33I, Y50A, H55Q, S56I, K93R, T97S
B20: AB200-(2Vk44)_R2-VH-v44 (antibody)
heavy: B2 heavy with S30T, M34I, G54I, Y59N, N61A, G66S, L108I, D109E
light: B1 light with S24R, D28S, N31S, L33I, Y50A, H55Q, S56I, K93R, T97S
B21: AB200-(2Vk44)_R2-VH-v53 (antibody)
heavy: B2 heavy with T28S, M34I, G54I, Y59N, F64Y, G66S, Y102F, L108I
light: B1 light with S24R, D28S, N31S, L33I, Y50A, H55Q, S56I, K93R, T97S
B22: AB200-(2Vk44)_R2-VH-v54 (antibody)
heavy: B2 heavy with T28S, M34I, G54I, Y59N, Q62E, G66S, L108I, D109E
light: B1 light with S24R, D28S, N31S, L33I, Y50A, H55Q, S56I, K93R, T97S
B23: AB200-(2Vk44)_R2-VH-v58 (antibody)
heavy: B2 heavy with M34I, A50G, G54I, Y59N, G66S, Y105F, L108I
light: B1 light with S24R, D28S, N31S, L33I, Y50A, H55Q, S56I, K93R, T97S
B24: AB200-(2Vk44)_R2-VH-v60 (antibody)
heavy: B2 heavy with M34I, A50G, G54I, H55Q, G66S, L108I, D109E
light: B1 light with S24R, D28S, N31S, L33I, Y50A, H55Q, S56I, K93R, T97S
B25: AB200-(2Vk44)_R2-VH-v61 (antibody)
heavy: B2 heavy with M34I, A50G, G54I, F64Y, G66S, L108I, D109E
light: B1 light with S24R, D28S, N31S, L33I, Y50A, H55Q, S56I, K93R, T97S
B26: AB200-(2Vk44)_R2-VH-v64 (antibody)
heavy: B2 heavy with M34I, G54I, D57T, N61A, G66S, Y105F, L108I
light: B1 light with S24R, D28S, N31S, L33I, Y50A, H55Q, S56I, K93R, T97S
B27: AB200-(2Vk44)_R2-VH-v68 (antibody)
heavy: B2 heavy with M34I, G54I, Y59N, N61A, G66S, K74E, Y105F, L108I
light: B1 light with S24R, D28S, N31S, L33I, Y50A, H55Q, S56I, K93R, T97S
B28: AB200-(2Vk44)_R2-VH-v7 (antibody)
heavy: B2 heavy with F29Y, M34I, G54S, D57T, N61A, G66S, Y105F, L108I
light: B1 light with S24R, D28S, N31S, L33I, Y50A, H55Q, S56I, K93R, T97S
B29: AB200-(2Vk44)_R2-VH-v70 (antibody)
heavy: B2 heavy with M34I, G54I, Y59N, F64Y, G66S, I101V, L108I
light: B1 light with S24R, D28S, N31S, L33I, Y50A, H55Q, S56I, K93R, T97S

target: T1, extracellular domain of human BCMA; assay: Octet binding assay, human BCMA; settings: Fab format, 200 nM
Method: (§1) The binding affinity of each mutated clone for the extracellular domain of human and monkey BCMA was determined by Octet assay (ForteBio). Amine Reactive 2nd Generation (AR2G) tips loaded with the extracellular domain of human or rhesus monkey BCMA (amino linked) were generated and incubated in a 200 nM solution of each antibody clone (all clones in Fab format). Ligand association and dissociation were determined over 600 seconds (300 seconds for each stage).

Compared with B1, B2 is 2.5-fold lower in Koff: 0.00091 s⁻¹ for the first, 0.00037 s⁻¹ for the second.

First: B3
Second: B4
The Koff of the first is 2.3-fold higher: 0.00053 s⁻¹ for the first, 0.00023 s⁻¹ for the second.

Molecule B5 has a Koff of 0.00044 s⁻¹.

B1 and B2 are within 1.5-fold of each other in Kon: 150000 M⁻¹ s⁻¹ for the first, 180000 M⁻¹ s⁻¹ for the second.

B3 and B4 are within 1.5-fold of each other in Kon: 170000 M⁻¹ s⁻¹ for the first, 190000 M⁻¹ s⁻¹ for the second.

Molecule B5 has a Kon of 110000 M⁻¹ s⁻¹.

target: T2, extracellular domain of rhesus monkey BCMA (Macaca mulatta, UniProt F7FFA0); assay: Octet binding assay, rhesus monkey BCMA; settings: Fab format, 200 nM
T2 construct: tips loaded with the extracellular domain of human or rhesus monkey BCMA (amino linked) were generated
Method: as §1

T2 sequence (F7FFA0 1-53): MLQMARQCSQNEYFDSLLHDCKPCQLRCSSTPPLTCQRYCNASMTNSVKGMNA

Going from B1 to B2, the Koff falls from 0.00219 s⁻¹ to 0.00105 s⁻¹ (2.1-fold).

Compared with B3, B4 is 2.1-fold lower in Koff: 0.0014 s⁻¹ for the first, 0.00066 s⁻¹ for the second.

Molecule B5 has a Koff of 0.00114 s⁻¹.

B1 and B2 are within 1.5-fold of each other in Kon: 160000 M⁻¹ s⁻¹ for the first, 180000 M⁻¹ s⁻¹ for the second.

B3 and B4 are within 1.5-fold of each other in Kon: 180000 M⁻¹ s⁻¹ for the first, 200000 M⁻¹ s⁻¹ for the second.

With B5 the Kon was 120000 M⁻¹ s⁻¹.

test system: not listed separately; assay: ThermoFluor thermostability (Tm); assay type: physicochemical; settings: Fab fragment; heavy chain clone paired with light chain AB200-(2Vk35)

First: B6
Second: B7
The Tm of the first is lower: 77.987 °C for the first, 78.430 °C for the second.

First: B8
Second: B9
The Tm of the first is higher: 80.226 °C for the first, 77.807 °C for the second.

In the case of B10, the Tm is reported as 79.284 °C.

same assay, conditions: Fab fragment; heavy chain clone paired with light chain AB200-(2Vk44)

Going from B11 to B12, the Tm rises from 77.278 °C to 78.398 °C.

Compared with B13, B14 is higher in Tm: 78.407 °C for the first, 81.915 °C for the second.

Going from B15 to B16, the Tm falls from 79.696 °C to 79.156 °C.

Going from B17 to B18, the Tm falls from 80.311 °C to 76.189 °C.

First: B19
Second: B20
The Tm of the first is higher: 78.286 °C for the first, 74.070 °C for the second.

Compared with B21, B22 is higher in Tm: 75.218 °C for the first, 75.912 °C for the second.

First: B23
Second: B24
The Tm of the first is lower: 75.513 °C for the first, 77.692 °C for the second.

Going from B25 to B26, the Tm rises from 76.850 °C to 77.787 °C.

Compared with B27, B28 is higher in Tm: 75.716 °C for the first, 77.428 °C for the second.

B29 gave a Tm of 76.335 °C.

Reference: patent publication US12043670B2, “Anti-BCMA antibody-drug conjugates and methods of use” (Eisai R&D Management Co., Ltd., priority 2020, dated 2024)
